Data: the supplement of paper PMC3334620
Over roughly 33,000 sequences, “E-score (-0.5 to 0.5)” has its median near -0.016; the highest 2% begin near 0.32. This is one part of the list.

Target: T1, Stp1 (UniProt B3LFK1)
T1 sequence: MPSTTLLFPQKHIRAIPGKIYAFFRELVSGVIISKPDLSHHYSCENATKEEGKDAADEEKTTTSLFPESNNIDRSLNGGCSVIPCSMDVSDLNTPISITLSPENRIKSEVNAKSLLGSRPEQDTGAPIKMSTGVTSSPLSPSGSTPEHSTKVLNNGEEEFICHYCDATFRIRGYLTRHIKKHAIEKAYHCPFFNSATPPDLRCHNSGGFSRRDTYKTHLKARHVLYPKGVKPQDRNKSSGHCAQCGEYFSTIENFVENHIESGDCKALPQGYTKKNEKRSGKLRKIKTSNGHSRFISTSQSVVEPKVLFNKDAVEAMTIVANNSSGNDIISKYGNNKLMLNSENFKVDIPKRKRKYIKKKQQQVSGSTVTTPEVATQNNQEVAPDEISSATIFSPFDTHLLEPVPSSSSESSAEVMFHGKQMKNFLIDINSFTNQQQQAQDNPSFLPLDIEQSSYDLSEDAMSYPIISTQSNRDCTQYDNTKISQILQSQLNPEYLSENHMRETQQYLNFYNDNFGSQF
Assay: PBM E-score (8-mer binding enrichment) (E-score (-0.5 to 0.5)); higher = stronger / more preferred TF binding; most listed sequences are background and not binding sites
Conditions: protein concentration: 200 nM; construct: GST-full length
Description: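 Universal 'all 10-mer' protein binding microarrays (Agilent AMADID 015681) probed with GST-tagged S. cerevisiae TFs (full-length or DBD) made by in vitro transcription/translation (PURExpress), about 100-200 nM. Bound TF was detected with fluorescent anti-GST. Each ungapped 8-mer (which stands for itself and its reverse complement) is scored by the PBM enrichment score (E-score), a modified Wilcoxon-Mann-Whitney statistic from -0.5 to +0.5, computed with the Universal PBM Analysis Suite. Scale: above 0.35 generally sequence-specific binding.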

| Sequence | PBM E-score |
| --- | --- |
| GTGGGGGA | -0.299 |
| GATATAAC | 0.0865 |
| GGAGTCTA | -0.368 |
| ATCCTTAA | -0.0371 |
| CCGAGGTC | -0.241 |
| AAGTAAGC | 0.0305 |
| TCTCCTCA | -0.138 |
| TACGAGTA | -0.0123 |
| ACCCACGA | -0.0625 |
| GAGTCCGA | 0.0238 |
| GCCTAAGA | -0.138 |
| GTGACTAA | 0.0535 |
| GGCGAGTA | 0.0446 |
| GAGGCTGA | -0.0986 |
| ATATCTCA | 0.117 |
| CTGTTAGC | -0.126 |
| GCGGGAGA | -0.27 |
| GCAATTGA | 0.217 |
| AATGAACT | 0.114 |
| TCATCCAA | -0.00732 |
| GCCTGCGA | -0.202 |
| CGTGTTTA | 0.114 |
| CGCGGACA | 0.17 |
| AACGGGGA | -0.0385 |
| GCCAAGGA | -0.16 |

| Sequence | PBM E-score |
| --- | --- |
| CGCTTTAC | -0.0161 |
| CAAAACGC | 0.322 |
| CGCGCGCC | 0.403 |
| AAGATGAC | -0.101 |
| CAATCACC | -0.0123 |
| GGAAGTGA | -0.0634 |
| AGATTGAG | 0.0447 |
| CAGTATAG | 0.195 |
| AAAGATGA | 0.17 |
| CACACGGC | 0.471 |
| ACTAAATC | 0.238 |
| CCGCAGAC | 0.121 |
| CGTTTTTC | 0.0985 |
| GACACCGC | -0.134 |
| ATTAAGGG | -0.294 |
| CCAAGGCG | 0.341 |
| ATAAGTAC | 0.0441 |
| ACAGAGGC | -0.0508 |
| AATTAGGA | 0.072 |
| AATTTTTA | 0.0472 |
| AACACCCG | 0.151 |
| ACACCGCA | 0.0297 |
| CCCGCAAG | -0.255 |
| GAGTCAAC | -0.175 |
| AAGGATAT | 0.144 |

| Sequence | PBM E-score |
| --- | --- |
| TGAGTGCA | -0.0619 |
| AAGAAGGA | -0.227 |
| ATGCGCAC | -0.00186 |
| AGAACGAT | 0.0102 |
| ACTAGTAG | 0.0974 |
| CTTCGACA | -0.0844 |
| ACTCCAGA | -0.0698 |
| GCCCGGGC | 0.0954 |
| GCGTGTCA | 0.12 |
| CTTGAAAC | 0.17 |
| GACACCTC | -0.00334 |
| CACTCTTA | 0.0762 |
| GAGAGTGA | 0.0241 |
| AAATGTCA | 0.00198 |
| ACCCGTCT | -0.141 |
| TCCTCACA | 0.069 |
| TACTAAAA | 0.217 |
| ACGGAGAG | -0.0709 |
| ACACTCTA | 0.178 |
| CATCCTAG | -0.00726 |
| AGGAAGAG | -0.237 |
| ATCGTACA | 0.0995 |
| AGGTCTCA | -0.131 |
| CGGAATAC | 0.00552 |
| CATCCATG | -0.0587 |

| Sequence | PBM E-score |
| --- | --- |
| GACCGGAA | -0.033 |
| GATCGCCA | -0.0854 |
| TGTCGGAA | -0.113 |
| AGCCCGCG | -0.101 |
| AATGTATG | 0.014 |
| ATTTTTTA | 0.287 |
| GGGAAACA | 0.043 |
| CCGAACGA | -0.0055 |
| CCAGCCCA | -0.327 |
| CCTGAGGC | 0.0583 |
| AAAGCGTG | -0.00087 |
| AGGGCGAA | -0.0283 |
| CAAACGAC | 0.0657 |
| CTGGTAGA | -0.0578 |
| CGTGCTAC | 0.058 |
| ACCTGGTC | -0.303 |
| CAAGTAAA | 0.112 |
| CGTTGTTC | 0.106 |
| TCTCGCCA | -0.153 |
| CCACACGC | 0.158 |
| GACCACGC | -0.192 |
| ATCTGCCG | 0.155 |
| CGGGGTAA | 0.00957 |
| CCATCCAA | 0.0222 |
| CATTCGGA | 0.135 |

| Sequence | PBM E-score |
| --- | --- |
| ACAATTTC | 0.00886 |
| ACCCCCAG | -0.405 |
| GTGAATTA | 0.206 |
| GACCAGTA | -0.284 |
| CCAACTTC | -0.101 |
| ATATGGTG | 0.0916 |
| GCTTCCGA | -0.0252 |
| CTCTGTAA | -0.0941 |
| ACAGGCCT | -0.248 |
| CGTAACAC | 0.0618 |
| AGCGATAA | 0.0662 |
| CGTTGAAC | 0.105 |
| GGGTGGTA | -0.125 |
| ACAGAGGT | -0.105 |
| CTTAGAGC | 0.0308 |
| AGCTTCCA | -0.0479 |
| GAGCAATC | -0.0394 |
| GGAGGCCA | -0.194 |
| ACCTTCTA | -0.0466 |
| GCCCCATA | -0.0843 |
| AGAGGCAA | 0.0357 |
| AGAGGCGA | 0.135 |
| CAACGGTC | -0.0394 |
| ACACGTAC | -0.0398 |
| ACACCGCT | -0.368 |

| Sequence | PBM E-score |
| --- | --- |
| AGCGGGGA | -0.147 |
| CGGGTTTA | 0.104 |
| ATCTCGAG | -0.0297 |
| GGGCTAAA | -0.0695 |
| CATTCTAG | -0.0663 |
| CAGAAAAA | 0.0537 |
| CACCTACC | -0.148 |
| CCAACAGA | -0.0733 |
| GCTAGGAA | -0.223 |
| AGTGCTCG | -0.162 |
| CCTACGCG | -0.103 |
| CCTATGCA | -0.0155 |
| AAATTTCT | -0.0455 |
| CCTGGCCG | -0.105 |
| GGACCTAC | -0.148 |
| CACAGAGG | -0.136 |
| ACACTTCG | 0.0446 |
| ACGACCAA | -0.0741 |
| CTCGTGAC | 0.00515 |
| AATTTAAA | 0.117 |
| GCTTGGAA | -0.00205 |
| AGGTAATG | -0.0559 |
| AGGGTAAC | -0.165 |
| CGATGAGA | -0.0578 |
| ATTATCAG | 0.141 |

| Sequence | PBM E-score |
| --- | --- |
| AGATGTAC | -0.171 |
| ATTAAATA | 0.221 |
| ATACAGGC | -0.0683 |
| CCTGCAAC | -0.0662 |
| GCAGATGA | -0.166 |
| CGGCGCTA | 0.453 |
| ACCAAGGC | 0.0919 |
| CGCAAACG | 0.202 |
| CAAACCGG | -0.213 |
| AGCAGGTA | -0.239 |
| GTATAGAC | -0.0238 |
| CCTATGTA | -0.117 |
| CGATTCAA | 0.0102 |
| GCCACAAA | 0.138 |
| ACGAATCT | -0.0452 |
| CAGACCGA | -0.0215 |
| CTTGATCA | -0.00807 |
| AAGGTCCC | -0.32 |
| ACGGTAAC | 0.0643 |
| GCTCTGAA | 0.0165 |
| ATCCGGGA | -0.147 |
| AGTGTCCG | 0.0985 |
